Experiments:
[1] = test system: melanoma cells (cell line MEL526); experiment: Melanoma lung lesion model with human TIL; format: in vivo, SCID-NOD mice
Experimental: FIG. 13A presents pictograms of lungs removed from mice engrafted with melanoma cells and treated according to the treatment groups indicated in the figure; FIG. 13B presents the average tumor weight of each treatment group; and FIG. 13C presents the number of lesions per mouse of each treatment group.
SCID-NOD mice were engrafted IV with 5×10^6 melanoma cells (cell line MEL526) and were treated for 44 days according to the treatment groups indicated in FIGS. 13A-13C. Antibodies were given twice a week by IV injection and 10×10^6 TIL were administered IV every 10 days. At day 49 the mice were sacrificed and the lungs were removed, photographed (FIG. 13A), weighed (FIG. 13B) and the lesions were counted (FIG. 13C). FIG. 13A—Digital photos of the mice lungs immediately after harvest. FIG. 13B—Tumor weight was calculated by subtracting the lung weight of the naïve mice from the average lung weight of the different treatment groups. The results represent the average of tumor weight ±SE from 7-8 mice per treatment group. FIG. 13C—The number of lung lesions in individual mice in the various groups; the black lines represent group medians; lungs with uncountable lesions were scored as 100. Paired T test was used to calculate statistical significance between the groups * P≤0.05, ** P≤0.025.

[2] = test system: IFN-γ secretion of human LAK cells; experiment: IFN-γ secretion of human LAK cells with lung cancer cells, ELISA; format: cell-based; conditions: with H358 or H460 cells, 24 hours
Experimental: FIGS. 11A and 11B. Anti-CEACAM1 antibodies enhance IFN-γ secretion of human LAK cells in the presence of human cancer cells. Human LAK cells were incubated with CM-24 in different concentrations for 30 minutes at 37° C. Human lung cancer cells H358 (FIG. 11A) or H460 (FIG. 11B) were added for an incubation of 24 hours. IFN-γ secretion was measured by ELISA. Results represent the mean+S.E of Granzyme B release values from 3 repeats per treatment. *P≤0.05 paired T-test, compared to effectors+target cells with medium only.
• A. Anti-CEACAM1 antibodies increase the cytotoxicity of human LAK cells against human melanoma cells: PBMC cells were isolated from a healthy donor followed by activation with IL-2 (500 or 1000 units/ml) for 3 days to generate a population of human LAK cells. Then, the human LAK cells were incubated with 0.1 μg/ml, 0.5 μg/ml, 2.5 μg/ml, 5 μg/ml or 10 μg/ml of an anti-CEACAM1 antibody (CM-24) for 30 minutes at 37° C. Human melanoma cells (SKMEL28) were added for an incubation of 24 hours, after which cytotoxicity was determined. […] PBMC cells were isolated from a healthy donor followed by activation with IL-2 (500 units/ml) for 7 days to generate a population of human LAK cells. […] Granzyme B secretion was measured by ELISA. […] IFN-γ secretion was measured by ELISA.

CEACAM1 on human TIL = target: T1, CEACAM1 on human TIL (Homo sapiens, UniProt P13688); experiment: CEACAM1 receptor occupancy on TIL isolated from lungs, flow cytometry with QuantiBrite; format: in vivo
T1 construct: endogenous in cells; host or cells: human tumor infiltrating lymphocytes (TIL) isolated from lungs of SCID-NOD mice
T1 sequence (P13688 35-526): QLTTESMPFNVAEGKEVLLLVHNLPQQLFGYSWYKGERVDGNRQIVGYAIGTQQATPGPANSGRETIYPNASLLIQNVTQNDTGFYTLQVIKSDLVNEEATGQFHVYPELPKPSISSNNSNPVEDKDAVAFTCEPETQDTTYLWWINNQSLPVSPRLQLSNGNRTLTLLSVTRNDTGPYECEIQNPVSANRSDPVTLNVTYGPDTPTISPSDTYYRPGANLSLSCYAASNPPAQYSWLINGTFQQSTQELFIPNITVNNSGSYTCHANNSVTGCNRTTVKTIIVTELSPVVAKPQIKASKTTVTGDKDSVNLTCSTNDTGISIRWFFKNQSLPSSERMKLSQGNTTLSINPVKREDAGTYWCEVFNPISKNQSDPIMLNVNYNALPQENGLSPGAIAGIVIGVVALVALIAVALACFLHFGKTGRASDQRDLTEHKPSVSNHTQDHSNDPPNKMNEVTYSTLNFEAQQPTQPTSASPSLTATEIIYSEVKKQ
Experimental: FIG. 14 is a bar histogram presenting the percentage of CEACAM1 receptor occupancy in TIL cells isolated from the lung lesions model.
At termination day, a flow cytometry based assay in combination with a QuantiBrite KIT was used in order to determine CEACAM1 receptor occupancy by CM-24 in human TIL isolated from the lungs of the treated mice. […] Examination of CEACAM1 RO values was performed using a flow cytometry based assay using PE conjugated CM-24 antibody and a QuantiBrite Kit (BD) Results represent average±SE of RO values on TIL isolated from the lung of 8-9 mice per treatment group. Data was analyzed using Kaluza software.

B1: CM-24: back-mutated humanized IgG4 anti human CEACAM1 monoclonal antibody; light chain SEQ ID NO: 52, heavy chain SEQ ID NO: 53 (antibody)
heavy: QVQLVQSGAEVKKPGASVKVSCKASGYAFTNNLIEWVRQAPGQGLEWIGVINPGSGDTNYNEKFKGRVTMTADKSISTAYMELSRLRSDDTAVYYCARGDYYGGFAVDYWGQGTTVTVSSASTKGPSVFPLAPCSRSTSESTAALGCLVKDYFPEPVTVSWNSGALTSGVHTFPAVLQSSGLYSLSSVVTVPSSSLGTKTYTCNVDHKPSNTKVDKRV[letters of human IgG4 Fc with S228P (EU numbers) left out]
light: DIQMTQSPSSLSASVGDRVTITCRTSQDIGNYLNWYQQKPGKAVKLLIYYTSRLHSGVPSRFSGSGSGTDYTLTISSLQPEDIATYFCQQGKSLPRTFGGGTKVEIKRTVAAPSVFIFPPSDEQLKSGTASVVCLLNNFYPREAKVQWKVDNALQSGNSQESVTEQDSKDSTYSLSSTLTLSKADYEKHKVYACEVTHQGLSSPVTKSFNRGEC
[1]; 1 mg/kg
  number of lung lesions, group median: 5
[1]; 1 mg/kg IV twice a week
  tumor growth inhibition (TGI): 84%
[1]; 3 mg/kg
  number of lung lesions, group median: 6
[1]; 3 mg/kg IV twice a week
  tumor growth inhibition (TGI): 87%
[1]; 6 mg/kg
  number of lung lesions, group median: 3
[1]; 6 mg/kg IV twice a week
  tumor growth inhibition (TGI): 90%
[1]; 10 mg/kg
  number of lung lesions, group median: 2
[1]; 10 mg/kg IV twice a week
  tumor growth inhibition (TGI): 93%
[1]; all CM-24 doses
  number of lung lesions per lung: ≤ 10
[2]
  IFN-γ levels: significantly increases IFN-γ levels in a dose-dependent manner
CEACAM1 on human TIL; 1 mg/kg
  Receptor occupancy (RO): 50%
CEACAM1 on human TIL; 3 mg/kg
  Receptor occupancy (RO): > 90%
CEACAM1 on human TIL; 6 mg/kg
  Receptor occupancy (RO): > 90%
CEACAM1 on human TIL; 10 mg/kg
  Receptor occupancy (RO): > 90%

Source: patent US11866509B2, “Humanized antibodies against CEACAM1” (Famewave Ltd., priority 2014, dated 2024)
